From the RNAGym collection of RNA variant scans (doi:10.7554/elife.90254)
Read counts are not given, so values of variants with three or more changes are uncertain.

B1: LINE1-mini (parent)
chain: GGCAGAGCUCAACACAGCGUGGCAAAGUGGCUGUGGCUAGACUGCC

Variants of: B1
Experiment: self-cleavage, relative activity (ratio to wild type); higher = more cleavage; in vitro, sequencing; the parent is a self-cleaving ribozyme

Q: Which self-cleavage does the source give for GCCACAGCUCAACACAGCGUGGCAAAGUGGCUGUGGCUGGGCUGCC [G2C G5C A39G A41G] here?
A: 0.02

Q: Which self-cleavage does the source give for GCCAGAGCUCAACACAGCGUGACAAAGGGGCUGUGGCUAGACUGCC [G2C G22A U28G] here?
A: 0.04

Q: With GCCAGAGCUCAACACAGCGUAGCAAACUGGCUGUGGCAAGACUGCC [G2C G21A G27C U38A] as the variant, how does the self-cleavage read?
A: 0.07

Q: With GCCAGAGCUCAACACAGCUUGGCAAAUUGGCUGUGACUAGACUGCC [G2C G19U G27U G36A] as the variant, how does the self-cleavage read?
A: 0.1

Q: Which self-cleavage does the source give for GCCAGAACUCAACGCAGCGUGGCAAAGUGGCAAUGGCUAGACUGCC [G2C G7A A14G U32A G33A] here?
A: 0.01

Q: Which self-cleavage does the source give for GCCACAGCUCAACACAGCGUGGCAAAGUCGCUGUGGCUAGACUGGC [G2C G5C G29C C45G] here?
A: 0.04

Q: For GCCAGAUCUCAACACAGCGUGGCUAAGUGGCUGUGGCUAGACUAUC [G2C G7U A24U G44A C45U], which self-cleavage is on record?
A: 0.06

Q: For GCCAGAGCUCAACACAGCGUGGCAAACUGGCUGUGGCUACCCUGCC [G2C G27C G40C A41C], which self-cleavage is on record?
A: 0.18

Q: For GCCAUAGCUCAAAACAGGGUGGCAAAGUGGCUGUGGCUAGACUGCC [G2C G5U C13A C18G], which self-cleavage is on record?
A: 0.07

Q: Which self-cleavage does the source give for GCCAGAGCUCAACACAGCCUGGCAAAGUGACUUUGGCGAUACUGCC [G2C G19C G30A G33U U38G G40U] here?
A: 0.02

Q: For GCCAGAGCUCAACACAGCGUAGCAUGGUGGCUGUGGCUAGAAUGCC [G2C G21A A25U A26G C42A], which self-cleavage is on record?
A: 0.22

Q: With GCCAGAGCUCAACACAGCGUCGAAAAGUGGCUGUGGCUAGACUGCC [G2C G21C C23A] as the variant, how does the self-cleavage read?
A: 0.19

Q: Which self-cleavage does the source give for GCCAGAGCUCAACACAGCUUGGCAAAGUGGCUGUGUCUAGAGUGGC [G2C G19U G36U C42G C45G] here?
A: 0.08

Q: For GCCAGAGCUCAACACAGCGUGACAAAGUGGCUGUGGCUAUACUGCC [G2C G22A G40U], which self-cleavage is on record?
A: 0.02

Q: For GCCAGAGCUCAACACAACGUUGCAAAGUGGCUGGGGCUGGACUGCC [G2C G17A G21U U34G A39G], which self-cleavage is on record?
A: 0.01

Q: For GCCAGAGCUCAACACAUCGUGGCAAAGUAGCUGUGGCUAGACUGCC [G2C G17U G29A], which self-cleavage is on record?
A: 0.03

Q: For GCCAGAGCUCAACACAGCUUGGCAAAAUGGCUGUGGCUAGACUGCC [G2C G19U G27A], which self-cleavage is on record?
A: 0.31

Q: With GCCACAGCUCAACACAGCGUGGCAACGUGGUUGUGGUUACACUGCC [G2C G5C A26C C31U C37U G40C] as the variant, how does the self-cleavage read?
A: 0.01

Q: With GCCAGAGCUCAACACAGCGUAGCAAAGUGGCUGUCGCUAGACUGCA [G2C G21A G35C C46A] as the variant, how does the self-cleavage read?
A: 0.02

Q: With GCCACAGCUCAACACAGCGUGGCAAAGUGGCUGUGGCUAGACUGUC [G2C G5C C45U] as the variant, how does the self-cleavage read?
A: 0.04

Q: Which self-cleavage does the source give for GCCAGAGCUCAACACAACGUUGCAACGUGGCUGUCGCUAGACUGCC [G2C G17A G21U A26C G35C] here?
A: 0.04

Q: With GCCAGAACUCAACACAGCGUAGCAAAGUGGCUGUGGAUAGACUGCC [G2C G7A G21A C37A] as the variant, how does the self-cleavage read?
A: 0.23

Q: For GCCAGAGCUCAACACAGCUUGGGAAAGUGGGUGUGGCUAGACUGCC [G2C G19U C23G C31G], which self-cleavage is on record?
A: 0.08

Q: Which self-cleavage does the source give for GCCAGAGCUCAACACAUCUUGGCAAAGUGGCUGUGGCUAGACUGCC [G2C G17U G19U] here?
A: 0.02

Q: With GCCAGAGCUCAACACAUCGUGGCAAAGUGGCUGUGGUUAGACUGCC [G2C G17U C37U] as the variant, how does the self-cleavage read?
A: 0.01

Q: With GCCAGAGCUCAACACAUCGUGGCAAAGUGGCUGUGGAUAGACUGCC [G2C G17U C37A] as the variant, how does the self-cleavage read?
A: 0.32

Q: With GCCAGAGCUCAACACAGCCUGGCAAAGUGGCUGUGGCUGGACUGCC [G2C G19C A39G] as the variant, how does the self-cleavage read?
A: 0.02

Q: Which self-cleavage does the source give for GCCAGAGCUCAACACAGCAUGGCAAAGUGGCUGUGGCUAGACUGAA [G2C G19A C45A C46A] here?
A: 0.41

Q: For GCCAUAGCUCAACACAGCGUUGUAAAGUGGCUGUGGCUAGACCGCC [G2C G5U G21U C23U U43C], which self-cleavage is on record?
A: 0.02

Q: With GCCAGACCUCAACACAGCGUGGCAAAGUGGCUGUGGCUAGAUUGCC [G2C G7C C42U] as the variant, how does the self-cleavage read?
A: 0.12

Q: With GCCAGAGCUCAACACAUCGUGGCAAAGUGGCUGCGGCUAGACUCCC [G2C G17U U34C G44C] as the variant, how does the self-cleavage read?
A: 0.09

Q: With GCCAGAGCUCAACACAGCAUGGCAAAGCGGCUGUGGCUAGACUGCC [G2C G19A U28C] as the variant, how does the self-cleavage read?
A: 0.98

Q: Which self-cleavage does the source give for GCCAAAGCUCAACACAGCGUGGCAAAAUGGUUGUGGCUCAACUGAC [G2C G5A G27A C31U A39C G40A C45A] here?
A: 0.01

Q: For GCCAGAGCUCAACACAGCGUGCCAACGUGGCUAUGGCUAGACUGCC [G2C G22C A26C G33A], which self-cleavage is on record?
A: 0.04

Q: With GCCAGAGCUCAACACAGCAUGGCAAAGUGGCUGUGGCUAGACUGGC [G2C G19A C45G] as the variant, how does the self-cleavage read?
A: 0.8

Q: Which self-cleavage does the source give for GCCACAGCUCGACACAGCGUGGCAAAGUGGCUGUUGCUAUACUGCC [G2C G5C A11G G35U G40U] here?
A: 0.03

Q: Which self-cleavage does the source give for GCCAGAGCUCAACACAGCAUAGCAACGUGGCUGUGGCUAGACUGCC [G2C G19A G21A A26C] here?
A: 0.21

Q: Which self-cleavage does the source give for GCCAUAGCUCAACACAGCGUGGCAAAGUGGCUGUGGCUACACUGCC [G2C G5U G40C] here?
A: 0.03

Q: Which self-cleavage does the source give for GCCAGAGCUCAACACAGCGUGGCAAACUGGCCGUGGCUAGACUGCC [G2C G27C U32C] here?
A: 0.04

Q: Which self-cleavage does the source give for GCCACAGCUCAACACAGCGUGCCAAAGUGGCUGUGGCUAGUCUGCC [G2C G5C G22C A41U] here?
A: 0.05

Q: With GCCAGAACUCAACACAGCGUGGCUAAGUGGCUGUGGCUAGACUGCC [G2C G7A A24U] as the variant, how does the self-cleavage read?
A: 0.14

Q: For GCCAGAACUCAACACAGCGUGGCAAAGUGGCUGUGGCUCGACAGCC [G2C G7A A39C U43A], which self-cleavage is on record?
A: 0.08

Q: With GCCAGAGCUCAACACAGCGUGGCAAACUGGCUGUGGCUAGACCGCC [G2C G27C U43C] as the variant, how does the self-cleavage read?
A: 0.09

Q: Which self-cleavage does the source give for GCCAGAUCUCAACACAGCGUGGCAAAGUGGCUGUGGGUAGAAUGCC [G2C G7U C37G C42A] here?
A: 0.03

Q: Which self-cleavage does the source give for GCCAGAUCUCAAUACAGCGAGGCAAGGUGGCUGUGGCUAGACUGCC [G2C G7U C13U U20A A26G] here?
A: 0.08

Q: Which self-cleavage does the source give for GCCAGAACUCAACACAGCGUAGCAAAGUGGCUGUUGCUAGACUGCC [G2C G7A G21A G35U] here?
A: 0.5

Q: Which self-cleavage does the source give for GCCAGAGCUCAACACAGCUUGGCAAAGUGGCUGUGGCUAGACUGCU [G2C G19U C46U] here?
A: 0.02

Q: For GCCAGAGCUCAACACAGCGUGACAAAGUGGCUGUGGCAAGGCUGCC [G2C G22A U38A A41G], which self-cleavage is on record?
A: 0.12

Q: Which self-cleavage does the source give for GCCAGAGCUCAACACAGCGUCGCAAAGUGGCUGUGGCUAGAUUACC [G2C G21C C42U G44A] here?
A: 0.26

Q: With GCCACAGCUCAACACCGCGUGGCAAAGUGGCUGUGGCUAGACUGCC [G2C G5C A16C] as the variant, how does the self-cleavage read?
A: 0.01

Q: For GCCAGAGCUCAACACAGCGUGGCAAAUUGGCUGUGGAUAGACUUCC [G2C G27U C37A G44U], which self-cleavage is on record?
A: 0.18

Q: Which self-cleavage does the source give for GCCAGAGCUCAACACAGCGUGCCAAAGUUGCUGUGGCUAGACUGCC [G2C G22C G29U] here?
A: 0.11

Q: With GCCAGAGCUCAACACAUCGUGGCAAAGUGGCUGUGGGUAGACUCCC [G2C G17U C37G G44C] as the variant, how does the self-cleavage read?
A: 0.1

Q: Which self-cleavage does the source give for GCCAGAGCUCAACACACCGUGGCAAAGUGUCUGUGGCUAGACUGCC [G2C G17C G30U] here?
A: 0.09

Q: With GCCAUAGCUCAACAAAGCGUGGCAAAGUCGUUGUGGCUAGCCUGCC [G2C G5U C15A G29C C31U A41C] as the variant, how does the self-cleavage read?
A: 0.02

Q: With GCCAGAACUCAACACGGCGUGGCAAAGUGGCUGUGGCCAGACUGCC [G2C G7A A16G U38C] as the variant, how does the self-cleavage read?
A: 0.02
